# This is one part of the list.
# Molecular target: T1, OsWOX13 (Oryza sativa, UniProt Q5QMM3 1-267)
# T1 sequence: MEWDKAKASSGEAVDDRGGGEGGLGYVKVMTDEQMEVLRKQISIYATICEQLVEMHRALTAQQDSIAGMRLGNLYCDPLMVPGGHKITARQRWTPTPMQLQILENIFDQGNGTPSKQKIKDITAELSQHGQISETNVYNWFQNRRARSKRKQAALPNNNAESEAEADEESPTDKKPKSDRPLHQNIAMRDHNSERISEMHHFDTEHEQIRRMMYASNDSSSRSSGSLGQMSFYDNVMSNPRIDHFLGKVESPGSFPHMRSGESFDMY
# Experiment: protein-binding microarray (RPBM); PBS, 2% BSA, 51.3 ng/ul salmon testes DNA, 50 uM zinc acetate, 200 nM TF, 25 C, 1 h; high values mean tight binding
# Conditions: protein: recombinant; tags: N-terminal polyhistidine and DsRed monomer fusion (pET32a); label: CyDye5-dUTP incorporated in the synthesized complementary strand; 3' TTTTT single-stranded linker to array surface; dsDNA, one strand shown
# Method in brief: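 Binding signal is reported as fluorescence intensity per feature (arbitrary units) from an Axon 4000B scanner. Incubation used 200 nM of each Ni–NTA-purified, N-terminally polyhistidine- and DsRed-fused transcription factor from E. coli BL21-CodonPlus on a double-stranded custom Agilent array for 1 h at 25 °C, with 50 µM zinc acetate in the buffer, followed by washing.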
row,Sequence,binding signal
1,ATCTAATTAGTTAAGAAGACATTGGTATTCAAAGTTTAAACGGAGTCACCTAGTGCAG,6530 fluorescence intensity (a.u.)
2,ACGTTGATTTATCATGATGTTAACACTTGCTGAGTTAGGACGGAGTCACCTAGTGCAG,39200 fluorescence intensity (a.u.)
3,ATGAATTAGATTAGATGTATATTTGAGGGAGTTAAAGTGGCGGAGTCACCTAGTGCAG,20800 fluorescence intensity (a.u.)
4,GTGACAGATTTATCACTCTGTTTTCTGTCACTCTGAGGCTCGGAGTCACCTAGTGCAG,28300 fluorescence intensity (a.u.)
5,TAGCTACTAATTAATTGTTCCGTGCAAGTTGGAGTAACGCCGGAGTCACCTAGTGCAG,27800 fluorescence intensity (a.u.)
6,AGTCCATGATTAGCCATAAATGCTACAGTAACCTATATGTCGGAGTCACCTAGTGCAG,13800 fluorescence intensity (a.u.)
7,AGAAATAAATGAGTCTTTCAAGCAATCATCTCAAGCAAGGCGGAGTCACCTAGTGCAG,5630 fluorescence intensity (a.u.)
8,CCTCTGACTGACCTGTGGGCCCGTGCTGTCATTCCAATCTCGGAGTCACCTAGTGCAG,6880 fluorescence intensity (a.u.)
9,CACGCTGACTCAACCAGATTGATAATAGTCAACTCGTCACCGGAGTCACCTAGTGCAG,18900 fluorescence intensity (a.u.)
10,GCTTAATTAATTAAGTCCATGGCTCGATCGAGAGCCAGTCCGGAGTCACCTAGTGCAG,38400 fluorescence intensity (a.u.)
11,TTGTGATAATTTTCCACGCTATTGTTACATCAAATTGAAACGGAGTCACCTAGTGCAG,5730 fluorescence intensity (a.u.)
12,TGCATCTATTGATAATTTAAAATTTTGAGATTTGGCTGTACGGAGTCACCTAGTGCAG,6590 fluorescence intensity (a.u.)
13,CCTTTATTAATTATCCAAATGTCATAAATAATTGGGTTGTCGGAGTCACCTAGTGCAG,27900 fluorescence intensity (a.u.)
14,AAGAAAATTTAAAACAATTGATTACATACTAAATTAATATCGGAGTCACCTAGTGCAG,9840 fluorescence intensity (a.u.)
15,CGCTGTCACATCAAATATTTAAACATATGCATATAGTATTCGGAGTCACCTAGTGCAG,3550 fluorescence intensity (a.u.)
16,GGGATTGGTATTAGCATATTAGAAAGCTATTGGAGATGCTCGGAGTCACCTAGTGCAG,8390 fluorescence intensity (a.u.)
17,TAAATGATTTGGAGTTAGTATTGGGCTATATTATTAAACTCGGAGTCACCTAGTGCAG,23000 fluorescence intensity (a.u.)
18,CCAGATTGACCAACCGCTCTAGCATTGTTCTGCACATGAGCGGAGTCACCTAGTGCAG,35200 fluorescence intensity (a.u.)
19,GCGGGTGAATTAACTGAAAATCAATCCTGAGTATGTACGTCGGAGTCACCTAGTGCAG,9100 fluorescence intensity (a.u.)
20,CATGATTGGACCAAAGAAATGCAGATTCAAACACTCAACACGGAGTCACCTAGTGCAG,35300 fluorescence intensity (a.u.)
21,TTATTGTAAAAGAGATTGATGAAGTTATGTGTCCTTCCATCGGAGTCACCTAGTGCAG,8620 fluorescence intensity (a.u.)
22,GGATCTTGTTCTAATTATCATCTTATTAGAATCCATCCATCGGAGTCACCTAGTGCAG,4800 fluorescence intensity (a.u.)
23,ATTAAGTGAATCAAAATTTATAACAGTTATAACTGATACACGGAGTCACCTAGTGCAG,5930 fluorescence intensity (a.u.)

# Reference: paper PMC7819943, “Rice protein-binding microarrays: a tool to detect cis-acting elements near promoter regions in rice”
